# Laboratory results: the supplement of paper PMC8728848
# Some of the results follow.
# B1: Epa3 (Candida glabrata), Q6VBI8_CANGB (protein)
# chain: MGSSHHHHHHSSGLVPRGSHMNDLGFSLFEKRELSSQNPFGYPIGCSPQDVAIIPGLTMELYSYPIVSGTPPNCYDASYVDPEYPRTGYLKRKMVGKSTGVTGNLNYKYSVEKACMVKYGNLPAGYNYNEPLTVSNFTMILYGYFKAQTTGLHTFFVNADDLLYINFGAGNAFDCCKREDSKTKLGEYVAYDIWHVDSSKNKVSLFLEKDLYYPIRMFFNNIGKDSSLDLSFSVNGATDQISDFSGYLYSVPDQPDTCPAHIGYDTTCR
# What was measured:
# Experiment in all cases: glycan array binding signal (z-score within array); higher = stronger binding
# Details in all cases: glycan notation: IUPAC condensed, linker removed
# [1] = target: Gal(b1-3)[Fuc(a1-4)]GlcNAc(b1-3)Gal(b1-4)[Fuc(a1-3)]GlcNAc
# Procedure, shortened: (§1)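 Glycan array data came from 3228 arrays in the Consortium for Functional Glycomics database, and only arrays with an available protein sequence were kept. Glycan names were put into IUPAC-condensed notation, and columns mapping to the same glycan were averaged. The binding signal is a within-array Z-score, averaged across arrays of one protein sequence run at different concentrations or buffers and across linkers. A negative Z-score can be read as non-binding.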
# [2] = target: Gal(b1-3)[Fuc(a1-4)]GlcNAc(b1-6)GalNAc
# Procedure, shortened: as §1
# [3] = target: Gal(b1-3)[GlcNAc(b1-6)]GalNAc
# Procedure, shortened: as §1
# [4] = target: Gal(b1-3)[Neu5Ac(a2-6)]GalNAc
# Procedure, shortened: as §1
# [5] = target: Gal(b1-3)[Neu5Ac(a2-6)]GlcNAc(b1-4)Gal(b1-4)Glc
# Procedure, shortened: as §1
# [6] = target: Gal(b1-3)[Neu5Ac(b2-6)]GalNAc
# Procedure, shortened: as §1
# [7] = target: Gal(b1-4)Gal
# Procedure, shortened: as §1
# [8] = target: Gal(b1-4)GalNAc(a1-3)[Fuc(a1-2)]Gal(b1-4)GlcNAc
# Procedure, shortened: as §1
# [9] = target: Gal(b1-4)GalNAc(b1-3)[Fuc(a1-2)]Gal(b1-4)GlcNAc
# Procedure, shortened: as §1
# [10] = target: Gal(b1-4)Glc
# Procedure, shortened: as §1
# [11] = target: Gal(b1-4)Glc6S
# Procedure, shortened: as §1
# [12] = target: Gal(b1-4)GlcNAc
# Procedure, shortened: as §1
# [13] = target: Gal(b1-4)GlcNAc(a1-6)Gal(b1-4)GlcNAc
# Procedure, shortened: as §1
# [14] = target: Gal(b1-4)GlcNAc(b1-2)Man
# Procedure, shortened: as §1
# [15] = target: Gal(b1-4)GlcNAc(b1-2)Man(a1-3)Man(b1-4)GlcNAc(b1-4)GlcNAc
# Procedure, shortened: as §1
# [16] = target: Gal(b1-4)GlcNAc(b1-2)Man(a1-3)[Gal(b1-4)GlcNAc(b1-2)Man(a1-6)]Man(b1-4)GlcNAc(b1-4)GlcNAc
# Procedure, shortened: as §1
# [17] = target: Gal(b1-4)GlcNAc(b1-2)Man(a1-3)[Gal(b1-4)GlcNAc(b1-2)Man(a1-6)]Man(b1-4)GlcNAc(b1-4)[Fuc(a1-6)]GlcNAc
# Procedure, shortened: as §1
# [18] = target: Gal(b1-4)GlcNAc(b1-2)Man(a1-3)[Gal(b1-4)GlcNAc(b1-2)Man(a1-6)][Gal(b1-4)GlcNAc(b1-4)]Man(b1-4)GlcNAc(b1-4)[Fuc(a1-6)]GlcNAc
# Procedure, shortened: as §1
# [19] = target: Gal(b1-4)GlcNAc(b1-2)Man(a1-3)[Gal(b1-4)GlcNAc(b1-2)Man(a1-6)][GlcNAc(b1-4)]Man(b1-4)GlcNAc(b1-4)[Fuc(a1-6)]GlcNAc
# Procedure, shortened: as §1
# [20] = target: Gal(b1-4)GlcNAc(b1-2)Man(a1-3)[GlcNAc(b1-2)Man(a1-6)]Man(b1-4)GlcNAc(b1-4)GlcNAc
# Procedure, shortened: as §1
# [21] = target: Gal(b1-4)GlcNAc(b1-2)Man(a1-3)[GlcNAc(b1-4)][Gal(b1-4)GlcNAc(b1-2)Man(a1-6)]Man(b1-4)GlcNAc(b1-4)GlcNAc
# Procedure, shortened: as §1
# [22] = target: Gal(b1-4)GlcNAc(b1-2)Man(a1-3)[Man(a1-6)]Man(b1-4)GlcNAc(b1-4)GlcNAc
# Procedure, shortened: as §1
# [23] = target: Gal(b1-4)GlcNAc(b1-2)Man(a1-6)Man(b1-4)GlcNAc(b1-4)GlcNAc
# Procedure, shortened: as §1
# [24] = target: Gal(b1-4)GlcNAc(b1-2)Man(a1-6)[GlcNAc(b1-2)Man(a1-3)]Man(b1-4)GlcNAc(b1-4)GlcNAc
# Procedure, shortened: as §1
# [25] = target: Gal(b1-4)GlcNAc(b1-2)Man(a1-6)[Man(a1-3)]Man(b1-4)GlcNAc(b1-4)GlcNAc
# Procedure, shortened: as §1
# [26] = target: Gal(b1-4)GlcNAc(b1-2)[Gal(b1-4)GlcNAc(b1-4)]Man(a1-3)[Gal(b1-4)GlcNAc(b1-2)Man(a1-6)]Man(b1-4)GlcNAc(b1-4)GlcNAc
# Procedure, shortened: as §1
# [27] = target: Gal(b1-4)GlcNAc(b1-2)[Gal(b1-4)GlcNAc(b1-4)]Man(a1-3)[Gal(b1-4)GlcNAc(b1-2)[Gal(b1-4)GlcNAc(b1-6)]Man(a1-6)]Man(b1-4)GlcNAc(b1-4)GlcNAc
# Procedure, shortened: as §1
# [28] = target: Gal(b1-4)GlcNAc(b1-2)[Gal(b1-4)GlcNAc(b1-4)]Man(a1-3)[GlcNAc(b1-4)][Gal(b1-4)GlcNAc(b1-2)Man(a1-6)]Man(b1-4)GlcNAc(b1-4)GlcNAc
# Procedure, shortened: as §1
# [29] = target: Gal(b1-4)GlcNAc(b1-2)[Gal(b1-4)GlcNAc(b1-4)]Man(a1-3)[GlcNAc(b1-4)][Gal(b1-4)GlcNAc(b1-2)[Gal(b1-4)GlcNAc(b1-6)]Man(a1-6)]Man(b1-4)GlcNAc(b1-4)GlcNAc
# Procedure, shortened: as §1
# [30] = target: Gal(b1-4)GlcNAc(b1-2)[Gal(b1-4)GlcNAc(b1-6)]Man(a1-6)[Gal(b1-4)GlcNAc(b1-2)Man(a1-3)]Man(b1-4)GlcNAc(b1-4)GlcNAc
# Procedure, shortened: as §1
# [31] = target: Gal(b1-4)GlcNAc(b1-2)[Gal(b1-4)GlcNAc(b1-6)]Man(a1-6)[Gal(b1-4)GlcNAc(b1-2)Man(a1-3)]Man(b1-4)GlcNAc(b1-4)[Fuc(a1-6)]GlcNAc
# Procedure, shortened: as §1
# [32] = target: Gal(b1-4)GlcNAc(b1-2)[Gal(b1-4)GlcNAc(b1-6)]Man(a1-6)[GlcNAc(b1-4)][Gal(b1-4)GlcNAc(b1-2)Man(a1-3)]Man(b1-4)GlcNAc(b1-4)GlcNAc
# Procedure, shortened: as §1
# [33] = target: Gal(b1-4)GlcNAc(b1-2)[Gal(b1-4)GlcNAc(b1-6)]Man(a1-6)[GlcNAc(b1-4)][Gal(b1-4)GlcNAc(b1-2)[Gal(b1-4)GlcNAc(b1-4)]Man(a1-3)]Man(b1-4)GlcNAc(b1-4)[Fuc(a1-6)]GlcNAc
# Procedure, shortened: as §1
# [34] = target: Gal(b1-4)GlcNAc(b1-3)Gal(b1-3)GalNAc
# Procedure, shortened: as §1
# [35] = target: Gal(b1-4)GlcNAc(b1-3)Gal(b1-3)GlcNAc
# Procedure, shortened: as §1
# [36] = target: Gal(b1-4)GlcNAc(b1-3)Gal(b1-4)Glc
# Procedure, shortened: as §1
# [37] = target: Gal(b1-4)GlcNAc(b1-3)Gal(b1-4)GlcNAc
# Procedure, shortened: as §1
# [38] = target: Gal(b1-4)GlcNAc(b1-3)Gal(b1-4)GlcNAc(b1-2)Man(a1-3)[Gal(b1-4)GlcNAc(b1-3)Gal(b1-4)GlcNAc(b1-2)Man(a1-6)]Man(b1-4)GlcNAc(b1-4)GlcNAc
# Procedure, shortened: as §1
binder,measurement,setting,value
B1,glycan array binding signal (z-score),[1],0.048
same,glycan array binding signal (z-score),[2],0.117
same,glycan array binding signal (z-score),[3],1.24
same,glycan array binding signal (z-score),[4],4.98
same,glycan array binding signal (z-score),[5],-0.353
same,glycan array binding signal (z-score),[6],0.622
same,glycan array binding signal (z-score),[7],-0.223
same,glycan array binding signal (z-score),[8],-0.136
same,glycan array binding signal (z-score),[9],-0.192
same,glycan array binding signal (z-score),[10],-0.298
same,glycan array binding signal (z-score),[11],-0.307
same,glycan array binding signal (z-score),[12],-0.097
same,glycan array binding signal (z-score),[13],-0.36
same,glycan array binding signal (z-score),[14],-0.235
same,glycan array binding signal (z-score),[15],-0.379
same,glycan array binding signal (z-score),[16],-0.306
same,glycan array binding signal (z-score),[17],0.052
same,glycan array binding signal (z-score),[18],-0.208
same,glycan array binding signal (z-score),[19],-0.401
same,glycan array binding signal (z-score),[20],-0.233
same,glycan array binding signal (z-score),[21],-0.319
same,glycan array binding signal (z-score),[22],-0.113
same,glycan array binding signal (z-score),[23],-0.327
same,glycan array binding signal (z-score),[24],-0.343
same,glycan array binding signal (z-score),[25],-0.091
same,glycan array binding signal (z-score),[26],-0.26
same,glycan array binding signal (z-score),[27],-0.301
same,glycan array binding signal (z-score),[28],-0.437
same,glycan array binding signal (z-score),[29],-0.286
same,glycan array binding signal (z-score),[30],-0.067
same,glycan array binding signal (z-score),[31],-0.134
same,glycan array binding signal (z-score),[32],-0.347
same,glycan array binding signal (z-score),[33],-0.301
same,glycan array binding signal (z-score),[34],-0.203
same,glycan array binding signal (z-score),[35],-0.224
same,glycan array binding signal (z-score),[36],-0.2
same,glycan array binding signal (z-score),[37],-0.401
same,glycan array binding signal (z-score),[38],1.13
